Measured values reported in patent US20110166106A1, “ARTEMISININ AND DERIVATIVES THEREOF AS ANTIVIRALS” (priority 2008, published 2011).

Experiments:
[1] = tested on: HSV-1; test: ART sensitivity of HSV-1; assay type: cell-based
Description: Previously, the strong anti-cytomegaloviral activity of ART was published by our group (Efferth et al., 2006; Kaptein et at, 2006). In these studies, the inhibitory potential of ART towards various cytomegaloviruses (human and animal CMVs) was described, both in cell culture models and in infected animals (Kaptein et al., 2006). […] However, the current status of investigations strongly encourages the use of ART in anti-herpesviral therapy. […] Concerning the chances of ART in anti-herpesviral therapy, particular interest would be in clinically complex situations which cannot be resolved by conventional antiviral treatment, such as organ and bone marrow transplantations with life-threatening herpesvirus reactivations, where conventional antivirals such as ganciclovir cannot safely be used because they would be toxic to the newly introduced tissue or stem cells.

[2] = tested on: human cytomegalovirus (HCMV, strain AD169); test: Standard plaque reduction assay, HCMV
[3] = tested on: HHV-6A (strain U1102); test: Inhibition of p41/38 early protein production in HSB-2/U1102 cells, Western blot; assay type: cell-based; details: 3 days, 1.5 μM and 5 μM ART identical results
[4] = tested on: HHV-6B, Z-29 variant; test: Inhibition of p41 early protein production in HHV-6B-infected MOLT-3 cells, Western blot; assay type: cell-based; details: 3 days, ART at 1.5 μM or 15 μM, mAb 6A5D12
Experimental: MOLT-3 cells are infected with HHV-6B, Z-29 variant, and cultured in the presence or absence of ART for 3 days. Western blot analysis is performed using mAb 6A5D12, which detects both HHV-6A and HHV-6B variants of p41, an Early Protein of HHV-6. […] Accordingly, it is shown that ART interferes with progression of HHV-6 infection from the latent stage characterized by IE to an active stage where p41 would be produced.

[5] = tested on: HHV-6B strain Z-29; test: Immunofluorescence antibody test for HHV-6 proteins in HHV-6B-infected MOLT-3 cells; assay type: cell-based; details: 3 days
Experimental: (§1) MOLT-3 cells infected with HHV-6B strain Z-29 are treated with ART, or with gancyclovir (GCV) as a control, for 3 days. Viral DNA synthesis is then tested by PCR. Cells are then fixed with acetone treatment.

[6] = tested on: HHV-6B strain Z-29; test: Viral DNA synthesis by PCR in HHV-6B-infected MOLT-3 cells; assay type: cell-based; details: 3 days, compared with GCV
Experimental: as §1

[7] = tested on: drug-resistant HHV-6B isolates; test: Inhibition of drug-resistant HHV-6B isolates in MT4 cells; details: isolates resistant to PFA, GCV and CDV, compared with the drug each isolate resists
[8] = tested on: drug-resistant cytomegalovirus; details: advanced stage drug-resistant cytomegalovirus infection, after hematopoietic stem cell transplantation; cited from earlier work
[9] = tested on: GPFAR1 (GCVR1-derived HHV-6 B); details: GPFAR1, MT4 cells; cited from earlier work
[10] = tested on: HST strain (HHV-6 B), wild-type; details: MT4 cells; cited from earlier work
[11] = tested on: GCVR1 (HST-derived HHV-6 B); details: GCVR1, MT4 cells; cited from earlier work
[12] = tested on: CDVR1 (HST-derived HHV-6 B); details: CDVR1, MT4 cells; cited from earlier work
[13] = tested on: cytomegaloviruses; details: Kaptein et al, 2006; cited from earlier work

## C[C@H]1[C@H](OC(=O)CCC(=O)O)O[C@@H]2O[C@@]3(C)CC[C@H]4[C@H](C)CC[C@@H]1[C@@]24OO3 [ART, artesunate]
[1]
  sensitivity towards ART: sensitive
[2]
  ART sensitivity of HCMV: marked ART-sensitivity
[3]
  levels of viral p41/38: below the detection limit
[4]
  production of detectable amounts of p41: blocks production of detectable amounts of p41
[5]
  formation of HHV-6 viral proteins: inhibited formation of HHV-6 viral proteins
[6]
  viral DNA synthesis by PCR: blocks viral DNA synthesis more effectively than does GCV
[7]
  inhibition of viral infection: greater inhibition
[8]
  antiviral effect in a patient: potent antiviral

## Nc1ccn(C[C@@H](CO)OCP(=O)(O)O)c(=O)n1 [CDV, cidofovir]
[9]
  IC50: 12.5 ± 4.4 µM
  RI (resistance index), ratio of IC50 to HST: [7.0]
[10]
  IC50: 1.8 ± 0.9 µM
[11]
  IC50: 57.8 ± 27.6 µM
  RI (resistance index), ratio of IC50 to HST: [32.6]
[12]
  IC50: 213 ± 77.3 µM
  RI (resistance index), ratio of IC50 to HST: [118.4]

## Nc1nc(O)c2ncn(COC(CO)CO)c2n1 [GCV, ganciclovir]
[9]
  IC50: 25.7 ± 3.9 µM
  RI (resistance index), ratio of IC50 to HST: [8.4]
[3]
  levels of viral p41/38: did not show a similar degree of inhibition
[10]
  IC50: 3.1 ± 0.8 µM
[11]
  IC50: 25.9 ± 2.8 µM
  RI (resistance index), ratio of IC50 to HST: [8.4]
[12]
  IC50: 12.9 ± 4.3 µM
  RI (resistance index), ratio of IC50 to HST: [4.2]

## O=C(O)P(=O)(O)O [PFA, foscarnet]
[9]
  IC50: 218 ± 17.3 µM
  RI (resistance index), ratio of IC50 to HST: [14.6]
[10]
  IC50: 15 ± 7 µM
[11]
  IC50: 18.9 ± 5.4 µM
  RI (resistance index), ratio of IC50 to HST: [1.3]
[12]
  IC50: 17.8 ± 6.9 µM
  RI (resistance index), ratio of IC50 to HST: [1.2]

## C[C@@H]1CC[C@H]2[C@@H](C)C(=O)O[C@@H]3O[C@@]4(C)CC[C@@H]1[C@]32OO4 [artemisinin, Artemisinin]
[13]
  antiviral activity: relatively low
